Measured values: paper PMC6377148
Where a chain is given by its changes, count along the chain named. No constants are given. Whether binding was seen depends on the method and setting. Binding seen in cells or lysates may run through a third protein. Some binding calls cover weakened binding; strength is not graded here. Tags and fused reporters may be left off the sequences shown.

The chains behind the UniProt entries cited, without tags or fusion partners.
UniProt P49336: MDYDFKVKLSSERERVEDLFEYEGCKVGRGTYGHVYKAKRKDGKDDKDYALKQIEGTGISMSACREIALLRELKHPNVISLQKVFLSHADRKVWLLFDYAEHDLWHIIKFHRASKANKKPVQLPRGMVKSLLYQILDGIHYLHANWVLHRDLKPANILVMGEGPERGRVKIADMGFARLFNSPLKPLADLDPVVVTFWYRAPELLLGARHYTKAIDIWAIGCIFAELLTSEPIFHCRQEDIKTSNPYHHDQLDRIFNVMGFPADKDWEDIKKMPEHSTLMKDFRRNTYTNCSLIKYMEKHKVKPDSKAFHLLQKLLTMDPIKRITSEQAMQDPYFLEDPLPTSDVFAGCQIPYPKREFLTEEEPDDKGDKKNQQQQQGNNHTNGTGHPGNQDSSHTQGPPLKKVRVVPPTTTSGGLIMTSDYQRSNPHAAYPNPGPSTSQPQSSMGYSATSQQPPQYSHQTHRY

Key:
Experiment in all cases: co-IP; 293T transiently transfected with C-terminally 3×Flag-tagged MTBP; anti-FLAG antibody on Protein G Dynabeads, lysis buffer 20 mM HEPES, 150 mM NaCl, 10% glycerol, 0.1% Triton X-100, 1 h at 4°C; endogenous Treslin/TICRR and Cdk8 by immunoblot
[1] = target: T1, MTBP-m1/2, C-terminally 3×Flag-tagged (293T) (human) (UniProt Q96DY7)
T1 sequence: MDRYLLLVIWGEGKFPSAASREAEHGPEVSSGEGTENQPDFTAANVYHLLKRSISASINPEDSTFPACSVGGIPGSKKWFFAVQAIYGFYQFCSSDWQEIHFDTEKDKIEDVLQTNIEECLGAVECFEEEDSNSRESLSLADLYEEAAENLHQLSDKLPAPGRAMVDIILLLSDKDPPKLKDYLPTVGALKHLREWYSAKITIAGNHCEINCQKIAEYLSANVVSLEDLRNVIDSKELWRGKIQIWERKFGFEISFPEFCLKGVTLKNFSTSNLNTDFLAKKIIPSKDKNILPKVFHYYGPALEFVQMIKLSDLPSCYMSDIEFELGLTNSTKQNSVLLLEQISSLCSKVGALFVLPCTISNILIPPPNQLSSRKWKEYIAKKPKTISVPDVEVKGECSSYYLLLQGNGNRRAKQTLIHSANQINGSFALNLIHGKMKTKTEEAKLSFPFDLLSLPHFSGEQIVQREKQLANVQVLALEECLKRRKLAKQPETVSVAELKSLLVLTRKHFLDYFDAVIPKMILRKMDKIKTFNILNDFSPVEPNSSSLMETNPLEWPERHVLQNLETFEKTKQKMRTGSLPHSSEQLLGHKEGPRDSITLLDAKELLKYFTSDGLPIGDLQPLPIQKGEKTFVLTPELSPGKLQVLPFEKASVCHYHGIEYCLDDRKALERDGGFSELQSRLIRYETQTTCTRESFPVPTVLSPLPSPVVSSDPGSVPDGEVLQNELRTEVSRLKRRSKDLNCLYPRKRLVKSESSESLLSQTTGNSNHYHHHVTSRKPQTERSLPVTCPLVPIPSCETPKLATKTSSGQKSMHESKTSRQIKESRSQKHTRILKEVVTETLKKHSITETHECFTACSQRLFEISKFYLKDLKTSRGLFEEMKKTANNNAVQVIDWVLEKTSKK

[2] = target: T2, MTBP-m3–6, C-terminally 3×Flag-tagged (293T) (human) (UniProt Q96DY7)
T2 sequence: T1 sequence with A413C, Q415A, Q423A, I424Q, N425A, G426Q

[3] = target: T3, MTBP-m1 (C413A), C-terminally 3×Flag-tagged (293T) (human) (UniProt Q96DY7)
T3 sequence: T1 sequence with Q415A

Measured: binding

Cdk8 (cyclin-dependent kinase 8), endogenous (from UniProt P49336 1-464) (enzyme)
binds: all assays above
